Measured values as given in the supplement of paper PMC8728848.
The list shows a part of the results.

Experiments:
Experiment in all cases: glycan array binding signal (z-score within array); higher = stronger binding
Conditions in all cases: glycan notation: IUPAC condensed, linker removed; mutation: E41A
[1] = target: Fuc(a1-2)[Gal(a1-3)]Gal(b1-4)GlcNAc(b1-2)Man(a1-3)[Fuc(a1-2)[Gal(a1-3)]Gal(b1-4)GlcNAc(b1-2)Man(a1-6)]Man(b1-4)GlcNAc(b1-4)GlcNAc
Method in brief: (§1)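 The Consortium for Functional Glycomics database supplied 3228 glycan arrays, of which those lacking an available protein sequence were dropped. The binding signal, a within-array Z-score, was averaged across arrays of the same protein sequence and across linkers. Negative scores can be read as non-binding.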

[2] = target: Fuc(a1-2)[Gal(a1-3)]Gal(b1-4)GlcNAc(b1-2)Man(a1-3)[Fuc(a1-2)[Gal(a1-3)]Gal(b1-4)GlcNAc(b1-2)Man(a1-6)]Man(b1-4)GlcNAc(b1-4)[Fuc(a1-6)]GlcNAc
Method in brief: as §1

[3] = target: Fuc(a1-2)[Gal(a1-3)]Gal(b1-4)GlcNAc(b1-3)GalNAc
Method in brief: as §1

[4] = target: Fuc(a1-2)[Gal(a1-3)]Gal(b1-4)GlcNAc(b1-3)[Fuc(a1-2)[Gal(a1-3)]Gal(b1-4)GlcNAc(b1-6)]GalNAc
Method in brief: as §1

[5] = target: Fuc(a1-2)[Gal(a1-3)]Gal(b1-4)GlcNAc(b1-6)GalNAc
Method in brief: as §1

[6] = target: Fuc(a1-2)[Gal(a1-3)]Gal(b1-4)[Fuc(a1-3)]Glc
Method in brief: as §1

[7] = target: Fuc(a1-2)[Gal(a1-3)]Gal(b1-4)[Fuc(a1-3)]GlcNAc
Method in brief: as §1

[8] = target: Fuc(a1-2)[Gal(a1-3)]Gal(b1-4)[Fuc(a1-3)]GlcNAc(b1-3)GalNAc
Method in brief: as §1

[9] = target: Fuc(a1-2)[Gal(a1-4)]Gal(b1-4)GlcNAc
Method in brief: as §1

[10] = target: Fuc(a1-2)[GalNAc(a1-3)]Gal
Method in brief: as §1

[11] = target: Fuc(a1-2)[GalNAc(a1-3)]Gal(b1-3)GalNAc(a1-3)[Fuc(a1-2)]Gal(b1-4)GlcNAc
Method in brief: as §1

[12] = target: Fuc(a1-2)[GalNAc(a1-3)]Gal(b1-3)GalNAc(b1-3)Gal(a1-4)Gal(b1-4)Glc
Method in brief: as §1

[13] = target: Fuc(a1-2)[GalNAc(a1-3)]Gal(b1-3)GlcNAc
Method in brief: as §1

[14] = target: Fuc(a1-2)[GalNAc(a1-3)]Gal(b1-3)GlcNAc(b1-2)Man(a1-3)[Fuc(a1-2)[GalNAc(a1-3)]Gal(b1-3)GlcNAc(b1-2)Man(a1-6)]Man(b1-4)GlcNAc(b1-4)GlcNAc
Method in brief: as §1

[15] = target: Fuc(a1-2)[GalNAc(a1-3)]Gal(b1-3)GlcNAc(b1-2)Man(a1-3)[Fuc(a1-2)[GalNAc(a1-3)]Gal(b1-3)GlcNAc(b1-2)Man(a1-6)]Man(b1-4)GlcNAc(b1-4)[Fuc(a1-6)]GlcNAc
Method in brief: as §1

[16] = target: Fuc(a1-2)[GalNAc(a1-3)]Gal(b1-3)GlcNAc(b1-3)GalNAc
Method in brief: as §1

[17] = target: Fuc(a1-2)[GalNAc(a1-3)]Gal(b1-3)GlcNAc(b1-6)GalNAc
Method in brief: as §1

[18] = target: Fuc(a1-2)[GalNAc(a1-3)]Gal(b1-4)Glc
Method in brief: as §1

[19] = target: Fuc(a1-2)[GalNAc(a1-3)]Gal(b1-4)GlcNAc
Method in brief: as §1

[20] = target: Fuc(a1-2)[GalNAc(a1-3)]Gal(b1-4)GlcNAc(b1-2)Man
Method in brief: as §1

[21] = target: Fuc(a1-2)[GalNAc(a1-3)]Gal(b1-4)GlcNAc(b1-2)Man(a1-3)[Fuc(a1-2)[GalNAc(a1-3)]Gal(b1-4)GlcNAc(b1-2)Man(a1-6)]Man(b1-4)GlcNAc(b1-4)GlcNAc
Method in brief: as §1

[22] = target: Fuc(a1-2)[GalNAc(a1-3)]Gal(b1-4)GlcNAc(b1-2)Man(a1-3)[Fuc(a1-2)[GalNAc(a1-3)]Gal(b1-4)GlcNAc(b1-2)Man(a1-6)]Man(b1-4)GlcNAc(b1-4)[Fuc(a1-6)]GlcNAc
Method in brief: as §1

[23] = target: Fuc(a1-2)[GalNAc(a1-3)]Gal(b1-4)GlcNAc(b1-3)Gal(b1-4)GlcNAc
Method in brief: as §1

[24] = target: Fuc(a1-2)[GalNAc(a1-3)]Gal(b1-4)GlcNAc(b1-3)Gal(b1-4)GlcNAc(b1-3)Gal(b1-4)GlcNAc
Method in brief: as §1

[25] = target: Fuc(a1-2)[GalNAc(a1-3)]Gal(b1-4)GlcNAc(b1-3)GalNAc
Method in brief: as §1

[26] = target: Fuc(a1-2)[GalNAc(a1-3)]Gal(b1-4)GlcNAc(b1-3)[Fuc(a1-2)[GalNAc(a1-3)]Gal(b1-4)GlcNAc(b1-6)]GalNAc
Method in brief: as §1

[27] = target: Fuc(a1-2)[GalNAc(a1-3)]Gal(b1-4)GlcNAc(b1-6)GalNAc
Method in brief: as §1

[28] = target: Fuc(a1-2)[GalNAc(a1-3)]Gal(b1-4)[Fuc(a1-3)]GlcNAc
Method in brief: as §1

[29] = target: Fuc(a1-2)[GalNAc(a1-3)]Gal(b1-4)[Fuc(a1-3)]GlcNAc(b1-3)GalNAc
Method in brief: as §1

[30] = target: Fuc(a1-2)[GalNAc(a1-4)]Gal(b1-4)GlcNAc
Method in brief: as §1

[31] = target: Fuc(a1-2)[GalNAc(b1-3)]Gal
Method in brief: as §1

Fuc(a1-3)GlcNAc = target: Fuc(a1-3)GlcNAc
Method in brief: as §1

[32] = target: Fuc(a1-3)[Gal(b1-4)]Glc6S
Method in brief: as §1

[33] = target: Fuc(a1-3)[Gal(b1-4)]GlcNAc
Method in brief: as §1

[34] = target: Fuc(a1-3)[Gal(b1-4)]GlcNAc(b1-2)Man
Method in brief: as §1

[35] = target: Fuc(a1-3)[Gal(b1-4)]GlcNAc(b1-2)Man(a1-3)[Fuc(a1-3)[Gal(b1-4)]GlcNAc(b1-2)Man(a1-6)]Man(b1-4)GlcNAc(b1-4)GlcNAc
Method in brief: as §1

[36] = target: Fuc(a1-3)[Gal(b1-4)]GlcNAc(b1-2)Man(a1-3)[Fuc(a1-3)[Gal(b1-4)]GlcNAc(b1-2)Man(a1-6)]Man(b1-4)GlcNAc(b1-4)[Fuc(a1-6)]GlcNAc
Method in brief: as §1

[37] = target: Fuc(a1-3)[Gal(b1-4)]GlcNAc(b1-3)Gal(b1-3)[Fuc(a1-4)]GlcNAc
Method in brief: as §1

[38] = target: Fuc(a1-3)[Gal(b1-4)]GlcNAc(b1-3)Gal(b1-4)[Fuc(a1-3)]GlcNAc
Method in brief: as §1

[39] = target: Fuc(a1-3)[Gal(b1-4)]GlcNAc(b1-3)Gal(b1-4)[Fuc(a1-3)]GlcNAc(b1-3)Gal(b1-4)[Fuc(a1-3)]GlcNAc
Method in brief: as §1

[40] = target: Fuc(a1-3)[Gal(b1-4)]GlcNAc(b1-3)GalNAc
Method in brief: as §1

[41] = target: Fuc(a1-3)[Gal(b1-4)]GlcNAc(b1-6)GalNAc
Method in brief: as §1

[42] = target: Fuc(a1-3)[Gal(b1-4)]GlcNAc(b1-6)[Gal(b1-3)GlcNAc(b1-3)]Gal(b1-4)Glc
Method in brief: as §1

[43] = target: Fuc(a1-3)[Gal(b1-4)]GlcNAc6S
Method in brief: as §1

[44] = target: Fuc(a1-3)[Gal3S(b1-4)]Glc
Method in brief: as §1

[45] = target: Fuc(a1-3)[Gal3S(b1-4)]GlcNAc
Method in brief: as §1

[46] = target: Fuc(a1-3)[Gal3S(b1-4)]GlcNAc6S
Method in brief: as §1

[47] = target: Fuc(a1-3)[GalNAc(b1-4)]GlcNAc
Method in brief: as §1

[48] = target: Fuc(a1-3)[GalNAc(b1-4)]GlcNAc6S
Method in brief: as §1

Fuc(a1-4)GlcNAc = target: Fuc(a1-4)GlcNAc
Method in brief: as §1

Fuc(b1-3)GlcNAc = target: Fuc(b1-3)GlcNAc
Method in brief: as §1

Gal(a1-2)Gal = target: Gal(a1-2)Gal
Method in brief: as §1

Gal(a1-3)Gal = target: Gal(a1-3)Gal
Method in brief: as §1

Gal(a1-3)Gal(b1-3)GlcNAc = target: Gal(a1-3)Gal(b1-3)GlcNAc
Method in brief: as §1

[49] = target: Gal(a1-3)Gal(b1-3)GlcNAc(b1-2)Man
Method in brief: as §1

[50] = target: Gal(a1-3)Gal(b1-3)GlcNAc(b1-2)Man(a1-3)[Gal(a1-3)Gal(b1-3)GlcNAc(b1-2)Man(a1-6)]Man(b1-4)GlcNAc(b1-4)GlcNAc
Method in brief: as §1

[51] = target: Gal(a1-3)Gal(b1-3)GlcNAc(b1-3)GalNAc
Method in brief: as §1

[52] = target: Gal(a1-3)Gal(b1-3)GlcNAc(b1-6)GalNAc
Method in brief: as §1

[53] = target: Gal(a1-3)Gal(b1-3)[Fuc(a1-4)]GlcNAc(b1-2)Man(a1-3)[Gal(a1-3)Gal(b1-3)[Fuc(a1-4)]GlcNAc(b1-2)Man(a1-6)]Man(b1-4)GlcNAc(b1-4)GlcNAc
Method in brief: as §1

Gal(a1-3)Gal(b1-4)Glc = target: Gal(a1-3)Gal(b1-4)Glc
Method in brief: as §1

B1: CVN-E41G (protein)
chain: MHHHHHHENLYFQSGNFSQACYNSAIQGSVLTSTCIRTNGGYNTSSIDLNSVIANVDGSLKWQGSNFIETCRNTQLAGSSELAAECKTRAQQFVSTKINLDDHIAAIDGTLKYE
glycan array binding signal (z-score) [1]: -0.072
glycan array binding signal (z-score) [2]: 0.501
glycan array binding signal (z-score) [3]: -0.234
glycan array binding signal (z-score) [4]: -0.139
glycan array binding signal (z-score) [5]: -0.201
glycan array binding signal (z-score) [6]: -0.145
glycan array binding signal (z-score) [7]: -0.15
glycan array binding signal (z-score) [8]: -0.211
glycan array binding signal (z-score) [9]: -0.175
glycan array binding signal (z-score) [10]: -0.219
glycan array binding signal (z-score) [11]: -0.202
glycan array binding signal (z-score) [12]: -0.265
glycan array binding signal (z-score) [13]: -0.168
glycan array binding signal (z-score) [14]: 0.063
glycan array binding signal (z-score) [15]: 0.724
glycan array binding signal (z-score) [16]: -0.034
glycan array binding signal (z-score) [17]: -0.189
glycan array binding signal (z-score) [18]: -0.206
glycan array binding signal (z-score) [19]: -0.228
glycan array binding signal (z-score) [20]: -0.133
glycan array binding signal (z-score) [21]: -0.07
glycan array binding signal (z-score) [22]: 1.61
glycan array binding signal (z-score) [23]: -0.206
glycan array binding signal (z-score) [24]: -0.123
glycan array binding signal (z-score) [25]: -0.218
glycan array binding signal (z-score) [26]: -0.169
glycan array binding signal (z-score) [27]: -0.149
glycan array binding signal (z-score) [28]: -0.183
glycan array binding signal (z-score) [29]: -0.167
glycan array binding signal (z-score) [30]: -0.221
glycan array binding signal (z-score) [31]: -0.18
glycan array binding signal (z-score) (Fuc(a1-3)GlcNAc): -0.238
glycan array binding signal (z-score) [32]: -0.218
glycan array binding signal (z-score) [33]: -0.194
glycan array binding signal (z-score) [34]: -0.143
glycan array binding signal (z-score) [35]: -0.166
glycan array binding signal (z-score) [36]: -0.133
glycan array binding signal (z-score) [37]: -0.148
glycan array binding signal (z-score) [38]: 0.014
glycan array binding signal (z-score) [39]: -0.209
glycan array binding signal (z-score) [40]: -0.194
glycan array binding signal (z-score) [41]: -0.161
glycan array binding signal (z-score) [42]: -0.195
glycan array binding signal (z-score) [43]: -0.008
glycan array binding signal (z-score) [44]: -0.171
glycan array binding signal (z-score) [45]: -0.207
glycan array binding signal (z-score) [46]: -0.202
glycan array binding signal (z-score) [47]: -0.204
glycan array binding signal (z-score) [48]: -0.247
glycan array binding signal (z-score) (Fuc(a1-4)GlcNAc): 1.24
glycan array binding signal (z-score) (Fuc(b1-3)GlcNAc): -0.126
glycan array binding signal (z-score) (Gal(a1-2)Gal): -0.221
glycan array binding signal (z-score) (Gal(a1-3)Gal): -0.227
glycan array binding signal (z-score) (Gal(a1-3)Gal(b1-3)GlcNAc): -0.192
glycan array binding signal (z-score) [49]: -0.163
glycan array binding signal (z-score) [50]: -0.027
glycan array binding signal (z-score) [51]: -0.18
glycan array binding signal (z-score) [52]: -0.199
glycan array binding signal (z-score) [53]: 1.41
glycan array binding signal (z-score) (Gal(a1-3)Gal(b1-4)Glc): -0.222
